From PubChem BioAssay AID504333 (National Center for Advancing Translational Sciences (NCATS), 2011)
Hit rate of the full screen: of about 360,000 compounds, about 16,000 (4.4%) were called active. Inconclusive means that the source gave no clear call. Such entries were picked first, then a sample of the others. Calls follow the shape of the dose curve; as a rule, active = well fitted inhibition curve with a large enough effect; inconclusive = small, poorly fitted or top-dose-only effect; inactive = no such curve, though single readings can be large or run the other way. A potency beside an inconclusive call is a rough fit, not a confirmed value.

Target: Bromodomain adjacent to zinc finger domain protein 2B (Homo sapiens) (UniProt Q9UIF8)
Assay: qHTS Assay for Inhibitors of BAZ2B; also: nearly all actives have a fitted effect of over 60% in size
Conditions: AlphaScreen BAZ2B-H3K14Ac peptide displacement; activity change, negative = inhibition: at 114 µM (top of the series) unless noted
In short: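 Inhibition is scored as reduced AlphaScreen emission. The BAZ2B/b-H3(5-23)K14Ac complex (50 nM each) in PBS pH 7.4, 0.01% Tween-20 meets compound (up to 110 uM) for 30 min at RT before bead addition.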
% is scaled to controls: 0 for no effect and ±100 for the full control effect; potency is read from the fitted curve at half-maximal effect; tags tell the direction and shape of the fitted curve.

Sequence of UniProt Q9UIF8 (Q9UIF8 whole entry, looked up, the tested form may be a part): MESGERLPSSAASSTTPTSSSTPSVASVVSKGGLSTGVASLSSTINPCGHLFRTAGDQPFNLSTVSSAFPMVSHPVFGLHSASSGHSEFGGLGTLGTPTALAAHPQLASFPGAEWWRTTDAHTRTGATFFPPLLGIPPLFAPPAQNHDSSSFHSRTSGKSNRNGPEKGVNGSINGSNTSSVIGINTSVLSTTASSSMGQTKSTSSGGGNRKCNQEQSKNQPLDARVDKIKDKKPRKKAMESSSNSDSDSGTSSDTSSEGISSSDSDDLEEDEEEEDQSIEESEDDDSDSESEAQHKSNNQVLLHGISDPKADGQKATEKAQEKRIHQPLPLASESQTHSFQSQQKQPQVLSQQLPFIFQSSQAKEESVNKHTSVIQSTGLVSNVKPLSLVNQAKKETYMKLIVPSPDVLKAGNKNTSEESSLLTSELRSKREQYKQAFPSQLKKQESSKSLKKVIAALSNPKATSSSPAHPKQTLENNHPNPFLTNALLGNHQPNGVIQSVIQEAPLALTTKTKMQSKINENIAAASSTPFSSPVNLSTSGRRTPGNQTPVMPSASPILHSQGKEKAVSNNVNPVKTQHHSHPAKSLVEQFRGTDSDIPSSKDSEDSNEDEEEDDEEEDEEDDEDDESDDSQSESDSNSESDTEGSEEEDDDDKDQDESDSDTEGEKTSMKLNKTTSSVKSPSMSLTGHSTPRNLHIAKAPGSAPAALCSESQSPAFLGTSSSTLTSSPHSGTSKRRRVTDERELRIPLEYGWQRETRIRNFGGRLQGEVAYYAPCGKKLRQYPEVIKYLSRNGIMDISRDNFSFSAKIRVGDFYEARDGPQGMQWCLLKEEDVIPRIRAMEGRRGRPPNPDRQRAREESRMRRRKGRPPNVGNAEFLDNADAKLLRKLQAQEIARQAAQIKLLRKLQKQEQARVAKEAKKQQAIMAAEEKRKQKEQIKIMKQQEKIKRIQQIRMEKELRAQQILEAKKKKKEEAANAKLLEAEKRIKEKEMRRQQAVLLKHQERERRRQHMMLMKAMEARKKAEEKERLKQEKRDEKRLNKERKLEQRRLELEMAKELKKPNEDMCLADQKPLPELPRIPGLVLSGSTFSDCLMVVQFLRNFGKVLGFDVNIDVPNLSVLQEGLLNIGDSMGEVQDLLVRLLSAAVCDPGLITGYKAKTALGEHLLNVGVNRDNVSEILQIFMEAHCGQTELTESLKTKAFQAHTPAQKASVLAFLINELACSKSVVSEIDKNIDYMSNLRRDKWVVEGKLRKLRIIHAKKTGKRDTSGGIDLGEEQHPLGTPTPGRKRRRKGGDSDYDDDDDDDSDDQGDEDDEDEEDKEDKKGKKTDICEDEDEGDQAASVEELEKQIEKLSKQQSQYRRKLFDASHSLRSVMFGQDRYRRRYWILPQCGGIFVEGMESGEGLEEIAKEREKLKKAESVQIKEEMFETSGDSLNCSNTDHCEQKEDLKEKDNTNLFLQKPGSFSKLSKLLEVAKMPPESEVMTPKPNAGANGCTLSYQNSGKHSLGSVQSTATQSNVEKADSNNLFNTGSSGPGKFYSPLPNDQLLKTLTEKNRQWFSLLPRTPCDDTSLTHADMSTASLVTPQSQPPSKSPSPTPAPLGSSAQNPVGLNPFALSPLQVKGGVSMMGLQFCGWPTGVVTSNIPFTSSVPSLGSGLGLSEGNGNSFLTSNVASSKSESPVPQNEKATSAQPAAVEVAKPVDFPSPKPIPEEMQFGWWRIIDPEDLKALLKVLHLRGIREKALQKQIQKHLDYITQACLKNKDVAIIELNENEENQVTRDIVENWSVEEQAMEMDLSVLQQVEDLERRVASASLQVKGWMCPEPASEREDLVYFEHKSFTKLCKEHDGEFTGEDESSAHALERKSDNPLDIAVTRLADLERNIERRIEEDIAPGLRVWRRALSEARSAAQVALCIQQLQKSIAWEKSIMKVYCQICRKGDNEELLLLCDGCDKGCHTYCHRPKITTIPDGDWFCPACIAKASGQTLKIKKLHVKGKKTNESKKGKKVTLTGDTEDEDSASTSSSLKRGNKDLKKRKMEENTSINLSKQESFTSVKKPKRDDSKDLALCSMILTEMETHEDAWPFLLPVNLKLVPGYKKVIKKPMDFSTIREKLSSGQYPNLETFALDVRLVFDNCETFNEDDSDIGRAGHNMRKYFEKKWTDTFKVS

Compound | Potency | activity change, negative = inhibition
CCC(CC)C(=O)Nc1cccc(S(=O)(=O)c2cccc(NC(=O)C(CC)CC)c2)c1 | inconclusive: 10 µM [inhibitor, single point] | 
Cc1cccc(-c2nc(C)c(CCNC(=O)C(=O)Nc3cccc(Cl)c3C)s2)c1 |  | inactive: 3.03%
CC(=O)NC(c1ccco1)c1cc(Cl)c2cccnc2c1O (stereo unspecified) | active: 31.6 µM | 
Cc1ccc(C2=NNC(=Nc3ccc(F)cc3)SC2)cc1 | inconclusive: 50.1 µM [inhibitor, partial curve] | 
O=C1CCCC2=C1C(c1ccc(O)c(O)c1)Nc1ccc3ncccc3c12 (stereo unspecified) | active: 50.1 µM | 
Cc1ccc2occ(CC(=O)N(Cc3ccccc3Cl)C3CCS(=O)(=O)C3)c2c1 (stereo unspecified) | inconclusive: 79.4 µM [inhibitor, single point] | 
Cc1ccc(C(C)(C)NC(=O)C2CCC(=O)N(CCCN3CCOCC3)C2)cc1 (stereo unspecified) | inconclusive: 89.1 µM [inhibitor, single point] | 
CCc1ccc(OCC2c3cc(OC)c(OC)cc3CCN2C(C)=O)cc1 (stereo unspecified) |  | inactive: -16.9%
CCOc1ccc(C(=O)CCC(=O)Nc2cc(C)ccn2)cc1 | inconclusive: 70.8 µM [inhibitor, single point] | 
CC(C)n1c(=S)[nH]c2cc(Cl)ccc21 | inconclusive: 39.8 µM [inhibitor, partial curve] | 
O=C(CC(c1cccs1)N1Cc2ccccc2C1=O)Nc1ccc(F)c(F)c1 (stereo unspecified) |  | inactive: 5.65%
CCOC(=O)c1ccc(-n2c(CCC(=O)O)ccc2-c2ccc(Br)cc2)cc1 | active: 50.1 µM | 
CCN(CC)Cc1c(C(=O)N2CCc3ccccc3C2)nc2ccc(Cl)cn12 | inconclusive: 89.1 µM [inhibitor, single point] | 
COc1cc2c(cc1OC)C1=C(C#N)COCN1CC2 | inconclusive: 89.1 µM [inhibitor, single point] | 
Cc1ccc(NC(=S)N/N=C2/CCCCc3ccccc32)cc1 | inconclusive: 28.2 µM [inhibitor, partial curve] | 
CCc1cccc(NC(=O)CCS(=O)(=O)c2ccc3c(c2)NC(=O)CO3)c1 |  | inactive: -18.1%
CCOc1ccc(/C(O)=C2/C(=O)C(=O)N(c3ncccn3)C2c2ccc(Cl)cc2)cc1 (stereo unspecified) | inconclusive: 79.4 µM [inhibitor, partial curve] | 
COc1ccc(NC2CCCN(Cc3cccc4cnccc34)C2)cc1 (stereo unspecified) | active: 44.7 µM | 
CCc1ccc(NCc2cc3ccc(OC)cc3n(CC(=O)Nc3ccc(F)cc3F)c2=O)cc1 |  | inactive: -26%
CCCCC(=O)Nc1nc(C)c(-c2csc(Nc3ccc(Cl)cc3)n2)s1 | inconclusive: 79.4 µM [inhibitor, single point] | 
O=C(NN=C1CCCCCCCCCCC1)c1ccncc1 | inconclusive: 89.1 µM [inhibitor, single point] | 
O=C(c1ccco1)N1CCN(C(c2ccccc2Cl)c2nnnn2Cc2ccco2)CC1 (stereo unspecified) | inconclusive: 89.1 µM [inhibitor, single point] | 
CC(C)(c1ccccc1)c1ccc(OCCCNCCO)cc1 | active: 56.2 µM | 

Compound | Potency | activity change, negative = inhibition
Cc1nn(-c2ccccc2)c2c1N(CCCC(=O)NCc1ccc(N(C)C)cc1)C(=O)CS2 | inconclusive: 44.7 µM [inhibitor, partial curve] | 
C=CCn1c(O)c(N=NC(=S)Nc2cccc(OC)c2)c2ccccc21 | active: 7.94 µM | 
COc1ccc(S(=O)(=O)N2CCCCC2)cc1NC(=O)c1ccc([N+](=O)[O-])o1 |  | inactive: -5.61%
Cc1ccc(C2=Nn3c(COc4ccc(Cl)cc4)nnc3SC2CC(=O)O)cc1 (stereo unspecified) | inconclusive: 89.1 µM [inhibitor, single point] | 
CCOC(=O)c1c(-c2ccc(C)cc2)csc1NC(=O)c1cc2ccccc2oc1=O | active: 39.8 µM | 
COc1cc(C2Nc3cccc4cccc(c34)N2)ccc1OC(C)=O | inconclusive: 79.4 µM [inhibitor, single point] | 
O=c1c2ccccc2nc(SCc2ccccc2F)n1C1CCCC1 |  | inactive: 1.67%
CC(C)Oc1ccc(CNC(=O)CCCN2C(=O)CCn3nc(-c4cccn4C)cc32)cc1 | inconclusive: 44.7 µM [inhibitor, partial curve] | 
O=C(c1ccccc1)N1CC(COc2ccccc2)OC(c2cccnc2)O1 (stereo unspecified) | inconclusive: 100 µM [inhibitor, single point] | 
CN(C)C(=O)CCc1nc2sc3c(c2c(=O)[nH]1)CCCC3 |  | inactive: 4.82%
COCCN(CC(=O)Nc1ccccc1C(F)(F)F)C(=O)c1ccc(-n2cccn2)cc1 |  | inactive: 6.33%
CCOc1ccc(N2C(=O)C3Sc4[nH]c(=O)sc4C(c4ccc(OC)c(OC)c4)C3C2=O)cc1 (stereo unspecified) | inconclusive: 44.7 µM [inhibitor, partial curve] | 
CC1CN(CCCCOc2ccc3ccccc3c2)CC(C)O1 (stereo unspecified) | inconclusive: 89.1 µM [inhibitor, single point] | 
Cc1cc(C(=O)CSc2nnc(N)s2)c(C)n1Cc1cccs1 | inconclusive: 39.8 µM [inhibitor, partial curve] | 
Cc1ccc(CSC2=Nc3ccccc3C3=NC(CCC(=O)NCc4ccco4)C(=O)N23)cc1 (stereo unspecified) | inconclusive: 79.4 µM [inhibitor, single point] | 
NC(=O)C1CCN(C(=O)C2CC(=O)N(c3ccc4c(c3)OCCO4)C2)CC1 (stereo unspecified) |  | inactive: 9%
Cc1c(C(=O)NCc2ccccc2)sc2nc3n(c(=O)c12)CCCCC3 | inconclusive: 89.1 µM [inhibitor, single point] | 
CSc1nc2nc(C)c(CCC(=O)OCC(=O)Nc3ccc(F)cc3)c(C)n2n1 |  | inactive: 12.6%
COc1cccc(CNC(=O)c2sc3nc(C)cc(C)c3c2-n2cccc2)c1OC |  | inactive: -7.66%
CC1C(=O)C(C)C(c2cccc(Br)c2)NC1c1cccc(Br)c1 (stereo unspecified) |  | inactive: 4.22%
N#CC1(NC(=O)CN2C(=O)c3ccc([N+](=O)[O-])cc3C2=O)CCCCC1 |  | inactive: 6.05%
CCOC(=O)C1(N(CC)CC)Sc2cc(C)ccc2NC1=O (stereo unspecified) | inconclusive: 89.1 µM [inhibitor, single point] | 
CCOC(=O)C1(C)/C(=N/Nc2cccc(Cl)c2)C(=O)C(=O)N1c1ccccc1 (stereo unspecified) | inconclusive: 89.1 µM [inhibitor, single point] | 
